{"source": "the supplement of paper PMC10126150", "note": "Sequences with one replicate were seen in a single cluster, so their values are uncertain.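 Also: ATP exposure 15 min at 22 °C before imaging.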"}
{"tested_on": "ATP", "test": "switch fluorescence ratio, 500 uM ATP over buffer (Cy3 cluster intensity, sum of 5 cycles each) (fold (ratio)); higher = stronger signal-on switching upon ATP binding; sequences stand for … in TCGTCGGCAGCGTCAGATGTGTATAAGAGACAGTTTTTTTTTTTTTTTTTTTTTTTTT…TC", "conditions": "aptamer strand: ATP DNA aptamer (quencher-CACCTGGGGGAGTATTGCGGAGGAAGG + anchor), 100 nM annealed; ATP concentration: 500 uM; one replicate", "outline": "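The fluorescence ratio divides summed target-cycle Cy3 intensity by summed buffer-cycle Cy3 intensity for each cluster and is averaged per switch-domain sequence. Cy3-labelled switching-strand clusters on a modified Illumina MiSeq flow-cell were annealed to 100 nM quencher-labelled ATP aptamer, then imaged in selection buffer and again after 15 min with 500 uM ATP at 22 °C. Five such cycles were run, with NaOH stripping and re-annealing between them, and clusters outside 100-1000 RFU were excluded.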"}
{"sequence": "GCAGGTCCCT", "switch fluorescence ratio": 1.03}
{"sequence": "GCAGGTTTAG", "switch fluorescence ratio": 0.974}
{"sequence": "GCAGTCGTCA", "switch fluorescence ratio": 1.04}
{"sequence": "GCAGTCTTAA", "switch fluorescence ratio": 0.978}
{"sequence": "GCAGTGCGAT", "switch fluorescence ratio": 0.993}
{"sequence": "GCAGTGTGTG", "switch fluorescence ratio": 0.949}
{"sequence": "GCAGTTCCCG", "switch fluorescence ratio": 1.05}
{"sequence": "GCAGTTCGTC", "switch fluorescence ratio": 1}
{"sequence": "GCATAGATAG", "switch fluorescence ratio": 1.01}
{"sequence": "GCATAGCTGT", "switch fluorescence ratio": 0.961}
{"sequence": "GCATAGGCTG", "switch fluorescence ratio": 1.02}
{"sequence": "GCATAGTAAT", "switch fluorescence ratio": 1.08}
{"sequence": "GCATATAGT", "switch fluorescence ratio": 1.08}
{"sequence": "GCATATGGGC", "switch fluorescence ratio": 1.01}
{"sequence": "GCATATTAGA", "switch fluorescence ratio": 0.997}
{"sequence": "GCATATTCGT", "switch fluorescence ratio": 1}
{"sequence": "GCATCATGAC", "switch fluorescence ratio": 1.07}
{"sequence": "GCATCATTGA", "switch fluorescence ratio": 0.985}
{"sequence": "GCATCCGGTC", "switch fluorescence ratio": 1.07}
{"sequence": "GCATCCTTGA", "switch fluorescence ratio": 1}
{"sequence": "GCATCTATCA", "switch fluorescence ratio": 1.01}
{"sequence": "GCATCTCCAT", "switch fluorescence ratio": 1.09}
{"sequence": "GCATCTGCAG", "switch fluorescence ratio": 1.03}
{"sequence": "GCATCTGGCA", "switch fluorescence ratio": 0.988}
{"sequence": "GCATCTTTGT", "switch fluorescence ratio": 0.999}
{"sequence": "GCATGACCCA", "switch fluorescence ratio": 1.03}
{"sequence": "GCATGATT", "switch fluorescence ratio": 0.996}
{"sequence": "GCATGCAGAA", "switch fluorescence ratio": 1.01}
{"sequence": "GCATGCGAT", "switch fluorescence ratio": 1}
{"sequence": "GCATGCGTAA", "switch fluorescence ratio": 0.971}
{"sequence": "GCATGGAGGT", "switch fluorescence ratio": 1.02}
{"sequence": "GCATGGATTA", "switch fluorescence ratio": 0.991}
{"sequence": "GCATGGCAGC", "switch fluorescence ratio": 0.985}
{"sequence": "GCATGGCATC", "switch fluorescence ratio": 1.01}
{"sequence": "GCATGTATCA", "switch fluorescence ratio": 1.01}
{"sequence": "GCATTAAGG", "switch fluorescence ratio": 1.02}
{"sequence": "GCATTATACC", "switch fluorescence ratio": 1.14}
{"sequence": "GCATTATTTC", "switch fluorescence ratio": 1.02}
{"sequence": "GCATTCAAAT", "switch fluorescence ratio": 1}
{"sequence": "GCATTCGGCG", "switch fluorescence ratio": 0.978}
{"sequence": "GCATTCTGTA", "switch fluorescence ratio": 1.05}
{"sequence": "GCATTGAACA", "switch fluorescence ratio": 1.02}
{"sequence": "GCATTGGCAA", "switch fluorescence ratio": 1.01}
{"sequence": "GCATTGGGGA", "switch fluorescence ratio": 0.95}
{"sequence": "GCATTGGTGC", "switch fluorescence ratio": 1}
{"sequence": "GCCAAAGATA", "switch fluorescence ratio": 0.979}
{"sequence": "GCCAACGCTA", "switch fluorescence ratio": 2.12}
{"sequence": "GCCAAGCGCG", "switch fluorescence ratio": 1.04}
{"sequence": "GCCAATAAGT", "switch fluorescence ratio": 0.988}
{"sequence": "GCCAATAGAC", "switch fluorescence ratio": 1.76}
{"sequence": "GCCAATTTTG", "switch fluorescence ratio": 0.989}
{"sequence": "GCCACAGAAA", "switch fluorescence ratio": 0.997}
{"sequence": "GCCACTATAG", "switch fluorescence ratio": 1.01}
{"sequence": "GCCACTCTCT", "switch fluorescence ratio": 1.02}
{"sequence": "GCCAGAACGA", "switch fluorescence ratio": 1.04}
{"sequence": "GCCAGAATAT", "switch fluorescence ratio": 1.05}
{"sequence": "GCCAGATA", "switch fluorescence ratio": 1.01}
{"sequence": "GCCAGATACT", "switch fluorescence ratio": 1.08}
{"sequence": "GCCAGATGG", "switch fluorescence ratio": 1.02}
{"sequence": "GCCAGCGGGT", "switch fluorescence ratio": 0.976}
{"sequence": "GCCAGCTTTG", "switch fluorescence ratio": 0.956}
{"sequence": "GCCAGGATGG", "switch fluorescence ratio": 0.964}
{"sequence": "GCCAGGGAAT", "switch fluorescence ratio": 0.978}
{"sequence": "GCCAGGGGTC", "switch fluorescence ratio": 0.996}
{"sequence": "GCCAGTATAA", "switch fluorescence ratio": 0.959}
{"sequence": "GCCATAACGG", "switch fluorescence ratio": 1.03}
{"sequence": "GCCATACGGA", "switch fluorescence ratio": 1.07}
{"sequence": "GCCATAGCTA", "switch fluorescence ratio": 1.06}
{"sequence": "GCCATATAAA", "switch fluorescence ratio": 0.981}
{"sequence": "GCCATATGTT", "switch fluorescence ratio": 1.02}
{"sequence": "GCCATGAGTA", "switch fluorescence ratio": 0.986}
{"sequence": "GCCATGTGCT", "switch fluorescence ratio": 0.984}
{"sequence": "GCCATTTAGT", "switch fluorescence ratio": 0.985}
{"sequence": "GCCATTTCGT", "switch fluorescence ratio": 0.964}
{"sequence": "GCCATTTTAT", "switch fluorescence ratio": 0.969}
{"sequence": "GCCATTTTTG", "switch fluorescence ratio": 0.993}
{"sequence": "GCCCAAATCG", "switch fluorescence ratio": 1.05}
{"sequence": "GCCCACCTCG", "switch fluorescence ratio": 1.03}
{"sequence": "GCCCAGAA", "switch fluorescence ratio": 1.03}
{"sequence": "GCCCATCTCA", "switch fluorescence ratio": 0.994}
{"sequence": "GCCCCAGCTG", "switch fluorescence ratio": 1.71}
{"sequence": "GCCCCCACGT", "switch fluorescence ratio": 1.19}
{"sequence": "GCCCCTGACT", "switch fluorescence ratio": 1.12}
{"sequence": "GCCCCTGTCC", "switch fluorescence ratio": 1.06}
{"sequence": "GCCCCTTTGC", "switch fluorescence ratio": 1}
{"sequence": "GCCCGACTCC", "switch fluorescence ratio": 1.61}
{"sequence": "GCCCGCGCTT", "switch fluorescence ratio": 1.04}
{"sequence": "GCCCGCTTGG", "switch fluorescence ratio": 1.05}
{"sequence": "GCCCTAAGCC", "switch fluorescence ratio": 0.971}
{"sequence": "GCCCTAGCGA", "switch fluorescence ratio": 1.02}
{"sequence": "GCCCTATGCA", "switch fluorescence ratio": 1.03}
{"sequence": "GCCCTTGGTC", "switch fluorescence ratio": 1}
{"sequence": "GCCCTTGTCG", "switch fluorescence ratio": 0.996}
{"sequence": "GCCGAAAAGC", "switch fluorescence ratio": 1.14}
{"sequence": "GCCGAGCAGC", "switch fluorescence ratio": 1.22}
{"sequence": "GCCGAGGACA", "switch fluorescence ratio": 1.05}
{"sequence": "GCCGAGGTTT", "switch fluorescence ratio": 0.995}
{"sequence": "GCCGATCCTA", "switch fluorescence ratio": 0.999}
{"sequence": "GCCGCAGACT", "switch fluorescence ratio": 2.63}
{"sequence": "GCCGCCGGGA", "switch fluorescence ratio": 1.1}
